Data on 19 molecules can be found in US20190367516A1 (Bayer Pharma Aktiengesellschaft, priority 2015, published 2019).

Molecules are shown by their SMILES.

This experiment has as its target T1, human M2 receptor (Homo sapiens, UniProt P08172).
T1 sequence (P08172 1-466): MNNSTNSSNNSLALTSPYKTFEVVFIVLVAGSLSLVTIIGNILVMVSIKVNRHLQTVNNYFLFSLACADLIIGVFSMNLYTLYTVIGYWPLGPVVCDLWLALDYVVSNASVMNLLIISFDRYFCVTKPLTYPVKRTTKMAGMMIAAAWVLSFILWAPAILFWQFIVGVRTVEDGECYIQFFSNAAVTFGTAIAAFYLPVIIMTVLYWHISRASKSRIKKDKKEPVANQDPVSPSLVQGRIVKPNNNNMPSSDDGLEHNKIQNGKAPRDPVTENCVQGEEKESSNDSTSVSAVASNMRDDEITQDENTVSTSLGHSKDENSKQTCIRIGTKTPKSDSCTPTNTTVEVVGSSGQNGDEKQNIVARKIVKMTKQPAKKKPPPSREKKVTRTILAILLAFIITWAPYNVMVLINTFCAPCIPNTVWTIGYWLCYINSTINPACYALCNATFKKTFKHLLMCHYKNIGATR
The conditions noted are these: read-out: Efficiency, M2-GIRK1/4 activation test; boosting of the acetylcholine effect at an EC20 acetylcholine concentration.

Consider `O=C(NC12CC3CC(CC(C3)C1)C2)c1cn(-c2ccc(F)cc2F)c2nc(N3CC(F)CC3=O)ccc2c1=O` (stereo not shown) [Example 187, 1-(2,4-Difluorophenyl)-7-[4-fluoro-2-oxopyrrolidin-1-yl]-4-oxo-N-(tricyclo[3.3.1.1^3,7]dec-1-yl)-1,4-dihydro-1,8-naphthyridine-3-carboxamide], for which the Emax was 93.5%.
Take `CC(C)(NC(=O)c1cn(-c2ccc(F)cc2F)c2nc(N3CC[C@@H](OC(F)F)C3)ccc2c1=O)c1c(F)cccc1F` [Example 188, 7-[(3R)-3-(Difluoromethoxy)pyrrolidin-1-yl]-1-(2,4-difluorophenyl)-N-[2-(2,6-difluorophenyl)propan-2-yl]-4-oxo-1,4-dihydro-1,8-naphthyridine-3-carboxamide]: the Emax came to 98.5%.
For `CC[C@@H](NC(=O)c1cn(-c2ccc(F)cc2F)c2nc(N3CC[C@H](F)C3)ccc2c1=O)C(F)(F)F` [Example 189, 1-(2,4-Difluorophenyl)-7-[(3S)-3-fluoropyrrolidin-1-yl]-4-oxo-N-[(2R)-1,1,1-trifluorobutan-2-yl]-1,4-dihydro-1,8-naphthyridine-3-carboxamide] the value was 90.5%; for `CC[C@@H](NC(=O)c1cn(-c2ccc(F)cc2F)c2nc(N3C[C@@H]4C(COC)[C@@H]4C3)ccc2c1=O)C(F)(F)F` (stereo partly drawn) [Example 190, 1-(2,4-Difluorophenyl)-7-[(1R,5S)-6-(methoxymethyl)-3-azabicyclo[3.1.0]hex-3-yl]-4-oxo-N-[(2R)-1,1,1-trifluorobutan-2-yl]-1,4-dihydro-1,8-naphthyridine-3-carboxamide], 93.7%.
Consider `CC[C@@H](NC(=O)c1cn(-c2ccc(F)cc2F)c2nc(N3CCCC3)ccc2c1=O)C(F)(F)F` [Example 192, 1-(2,4-Difluorophenyl)-4-oxo-7-(pyrrolidin-1-yl)-N-[(2R)-1,1,1-trifluorobutan-2-yl]-1,4-dihydro-1,8-naphthyridine-3-carboxamide], for which the Emax was 91.7%.
With `CC[C@@H](NC(=O)c1cn(-c2ccc(F)cc2F)c2nc(N3C[C@@H](OC)CC3=O)ccc2c1=O)C(F)(F)F` [Example 193, 1-(2,4-Difluorophenyl)-7-[(4S)-4-methoxy-2-oxopyrrolidin-1-yl]-4-oxo-N-[(2R)-1,1,1-trifluorobutan-2-yl]-1,4-dihydro-1,8-naphthyridine-3-carboxamide], the Emax was found to be 100%.
Take `CC[C@@H](NC(=O)c1cn(-c2ccc(F)cc2F)c2nc(N3CC(OC(=O)NC)CC3=O)ccc2c1=O)C(F)(F)F` (stereo partly drawn) [Example 200, (3S)-1-[8-(2,4-Difluorophenyl)-5-oxo-6-{[(2R)-1,1,1-trifluorobutan-2-yl]carbamoyl}-5,8-dihydro-1,8-naphthyridin-2-yl]-5-oxopyrrolidin-3-yl methyl carbamate]: the Emax was determined as 83.3%.
For `O=C(Nc1c(Cl)cccc1Cl)c1cn(-c2ccc(F)cc2F)c2nc(N3C[C@@H](O)CC3=O)ccc2c1=O` [Example 201, N-(2,6-Dichlorophenyl)-1-(2,4-difluorophenyl)-7-[(4S)-4-hydroxy-2-oxopyrrolidin-1-yl]-4-oxo-1,4-dihydro-1,8-naphthyridine-3-carboxamide] the value was 94.8%; for `O=C(Nc1c(Cl)cccc1Cl)c1cn(-c2ccc(F)cc2F)c2nc(N3CC[C@H](O)C3=O)ccc2c1=O` [Example 202, N-(2,6-Dichlorophenyl)-1-(2,4-difluorophenyl)-7-[(3S)-3-hydroxy-2-oxopyrrolidin-1-yl]-4-oxo-1,4-dihydro-1,8-naphthyridine-3-carboxamide], 93.3%; for `CC[C@H](NC(=O)c1cn(-c2ccccc2F)c2nc(N(C)C)ccc2c1=O)C(F)(F)F` [Example 203, 7-(Dimethylamino)-1-(2-fluorophenyl)-4-oxo-N-[(2S)-1,1,1-trifluorobutan-2-yl]-1,4-dihydro-1,8-naphthyridine-3-carboxamide], 92.5%.
For `CC[C@@H](NC(=O)c1cn(-c2ccc(F)cc2F)c2nc(N3CCC3=O)ccc2c1=O)C(F)(F)F` [Example 205, 1-(2,4-Difluorophenyl)-4-oxo-7-(2-oxoazetidin-1-yl)-N-[(2R)-1,1,1-trifluorobutan-2-yl]-1,4-dihydro-1,8-naphthyridine-3-carboxamide] the value was 85%.
For `O=C(NC(c1ccccc1Cl)C(F)(F)F)c1cn(-c2ccc(F)cc2F)c2nc(N3CC[C@H](F)C3)ccc2c1=O` (stereo partly drawn) [Example 217, N-[1-(2-Chlorophenyl)-2,2,2-trifluoroethyl]-1-(2,4-difluorophenyl)-7-[(3S)-3-fluoropyrrolidin-1-yl]-4-oxo-1,4-dihydro-1,8-naphthyridine-3-carboxamide] the value was 96.3%.
Take `CCC(COC(F)(F)F)NC(=O)c1cn(-c2ccc(F)cc2F)c2nc(N3C[C@@H](O)CC3=O)ccc2c1=O` (stereo partly drawn) [Example 234, 1-(2,4-Difluorophenyl)-7-[(4S)-4-hydroxy-2-oxopyrrolidin-1-yl]-4-oxo-N-[1-(trifluoromethoxy)butan-2-yl]-1,4-dihydro-1,8-naphthyridine-3-carboxamide]: the Emax turned out to be 89.8%.
On to `CC(NC(=O)c1cn(-c2ccc(F)cc2F)c2nc(N3C[C@@H](O)CC3=O)ccc2c1=O)c1ccccc1F` (stereo partly drawn) [Example 235, 1-(2,4-Difluorophenyl)-N-[1-(2-fluorophenyl)ethyl]-7-[(4S)-4-hydroxy-2-oxopyrrolidin-1-yl]-4-oxo-1,4-dihydro-1,8-naphthyridine-3-carboxamide], for which the Emax is 98.3%.
As for `COCC(C)(NC(=O)c1cn(-c2ccc(F)cc2F)c2nc(N3C[C@@H](O)CC3=O)ccc2c1=O)C(F)(F)F` (stereo partly drawn) [Example 236, 1-(2,4-Difluorophenyl)-7-[(4S)-4-hydroxy-2-oxopyrrolidin-1-yl]-4-oxo-N-[1,1,1-trifluoro-3-methoxy-2-methylpropan-2-yl]-1,4-dihydro-1,8-naphthyridine-3-carboxamide], the Emax was determined as 100%.
For `O=C(NC1(C(F)(F)F)CCOCC1)c1cn(-c2ccc(F)cc2F)c2nc(N3C[C@@H](O)CC3=O)ccc2c1=O` [Example 237, 1-(2,4-Difluorophenyl)-7-[(4S)-4-hydroxy-2-oxopyrrolidin-1-yl]-4-oxo-N-[4-(trifluoromethyl)tetrahydro-2H-pyran-4-yl]-1,4-dihydro-1,8-naphthyridine-3-carboxamide] the value was 100%.
For `O=C(NC(c1c(F)cccc1F)C(F)(F)F)c1cn(-c2ccc(F)cc2F)c2nc(N3CCCC(O)C3=O)ccc2c1=O` (stereo not shown) [Example 247, 1-(2,4-Difluorophenyl)-N-[1-(2,6-difluorophenyl)-2,2,2-trifluoroethyl]-7-[3-hydroxy-2-oxopiperidin-1-yl]-4-oxo-1,4-dihydro-1,8-naphthyridine-3-carboxamide], the Emax worked out at 93%.
For the molecule `CC[C@@H](NC(=O)c1cn(-c2ccc(F)cc2F)c2nc(N3C[C@@H](C(=O)OC)OC3=O)ccc2c1=O)C(F)(F)F` [Example 257, Methyl (5S)-3-[8-(2,4-difluorophenyl)-5-oxo-6-{[(2R)-1,1,1-trifluorobutan-2-yl]carbamoyl}-5,8-dihydro-1,8-naphthyridin-2-yl]-2-oxo-1,3-oxazolidine-5-carboxylate], the Emax amounted to 100%.
`CC[C@H](NC(=O)c1cn(-c2ccc(F)cc2F)c2nc(N3C[C@@H](C(=O)OC)OC3=O)ccc2c1=O)C(F)(F)F` [Example 258, Methyl (5S)-3-[8-(2,4-difluorophenyl)-5-oxo-6-{[(2S)-1,1,1-trifluorobutan-2-yl]carbamoyl}-5,8-dihydro-1,8-naphthyridin-2-yl]-2-oxo-1,3-oxazolidine-5-carboxylate]: the Emax was determined as 99.3%.
